Results: PubChem BioAssay AID743279 (National Center for Advancing Translational Sciences (NCATS), 2014)
Among all 360,000 compounds or so, about 17,000 (4.7%) were called active. The shares of active, inactive and inconclusive entries below differ from those in the screen. No stated cut-off is given here; in the data, active means activity change below about -50%; inconclusive means mostly about -30% to -49%; inactive means weaker than that.

Assay: qHTS for Inhibitors of Inflammasome Signaling: IL-1-beta AlphaLISA Primary Screen
Settings: THP-1 LPS/ATP IL-1B secretion, 16 h; at 57.5 µM, active compounds read low
Method in brief: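 Secreted IL-1B measured by AlphaLISA bead assay after 16 h compound exposure of THP-1 cells; compounds (final up to 57.5 uM) added 1 h before LPS (250 ng/mL) and ATP (1.25 mM) stimulation; lower signal means less secretion.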
On the % scale 0 is the no-effect control and ±100 the full control effect.

SMILES	activity change
O=C(Nc1cccc(S(=O)(=O)N2CCOCC2)c1)C1CCCC1	inactive: -7.47%
O=C(NCc1ccc(Cl)c(Cl)c1)c1cc(C2CCCCN2C(=O)c2cccs2)on1 (centres undefined)	inactive: -18.9%
CN(C)c1nc(OCCOC(=O)Nc2ccc(Cl)cc2Cl)nc(N(C)C)n1	inconclusive: -31%
COC(=O)C1=CN(c2cccc(Cl)c2)C=C(C(=O)OC)C1c1cccc(OC)c1	inconclusive: -46.3%
CCOC(=O)[C@]12CCCC=C1N(Cc1ccco1)C(=O)[C@H](CC(=O)NCCCCc1ccccc1)C2	inconclusive: -40.5%
NC(CO)c1csc(Nc2ccc(C(=O)c3ccccc3)cc2)n1 (centres undefined)	inconclusive: -41.6%
C#CCOCCOCCOCCNc1nc(N2CCN(C(=O)[C@H](C(C)C)n3cc(CCO)nn3)CC2)nc(N2CCN(C(=O)[C@H](CCCCN)n3cc(CCCC)nn3)CC2)n1	inactive: 2.75%
O=C(Nc1ccc(F)cc1)C(c1ccccc1)N1CCN(C(=O)c2ccco2)CC1 (centres undefined)	inconclusive: -30.4%
CNC(=O)c1ccsc1NC(=O)c1ccccc1	inconclusive: -32.2%
CC(C)OCCCNC(=O)Cn1ccc2cc(S(=O)(=O)N3CCCCC3)ccc21	inactive: 34.6%
CN(O)/C=C/C(=O)c1ccc(Br)cc1	inconclusive: -45.9%
COc1ccc(OCc2nc3ccccc3n2C(C)C)cc1	inconclusive: -40%
O=C(NCCC1CCCCN1S(=O)(=O)c1ccc(F)cc1)C(=O)NCc1cccnc1 (centres undefined)	inactive: -10%
CCCCNc1nc2c(c(=O)n(C)c(=O)n2C)n1Cc1cccc(OC)c1	active: -59.5%
O=C(Nc1ccc2c(c1)CCC2)c1cccc(OC(F)F)c1	inconclusive: -30.3%
Cc1cc(Nc2nnnn2-c2ccccc2)n(-c2ccc(Cl)cc2)n1	inactive: 8.58%
Oc1ccc(N=Nc2ccccc2)o1	active: -89.9%
O=c1c2ccccc2nc(/C=C/c2cc(Br)ccc2O)n1CCCO	active: -101%
COc1ccccc1Oc1ccc(N2CC(C(=O)OCC(=O)c3ccccc3)CC2=O)cc1 (centres undefined)	inactive: 29.3%
Cc1cc(Br)c(Cl)cc1NC(=O)CN1C(=O)C2C3CC(c4ccccc4)C(C3)C2C1=O (centres undefined)	inconclusive: -37.6%
O=C1C(Cl)=C(NC(=O)c2ccccc2)C(=O)C(Cl)=C1NC(=O)c1ccccc1	active: -99.1%
Cc1cc(CN2CCCC(C(=O)Nc3cccc(-n4cccn4)c3)C2)cc(C)c1O (centres undefined)	inactive: 0%
CCCCC(=O)O[C@]1(C(=O)CO)CC[C@H]2[C@@H]3CCC4=CC(=O)CC[C@]4(C)[C@H]3[C@@H](O)C[C@@]21C	active: -68.3%

SMILES	activity change
CC(C)CCn1c(N)c(S(=O)(=O)c2cccs2)c2nc3ccccc3nc21	active: -87.6%
CCN(CC)CCCn1c2c(c(SCC(=O)Nc3cc(C)cc(C)c3)nc1=O)CCC2	active: -57.4%
CCCCNC(=O)C1C(c2ccccc2)=Nc2ccccc2N1C(=O)c1ccc(C)cc1 (centres undefined)	inactive: 36.3%
CC(Sc1nnc(N)s1)C(=O)NC1CCCCC1C (centres undefined)	inconclusive: -48.6%
COCCN(CCOC)S(=O)(=O)c1ccc(C(=O)Nc2nnc(COC)o2)cc1	inactive: 3%
c1ccc(C2=NNC(c3ccccn3)=NN2)nc1	inconclusive: -31.8%
Cc1cccc(Cn2c(=O)n(CCCC(=O)NCc3ccco3)c(=O)c3ccccc32)c1	inconclusive: -39.1%
O=C(CSc1nccn1Cc1ccccc1)NC1CCCC1	inactive: 0.823%
Cc1ccc(S(=O)(=O)[N-]c2nc3ccccc3nc2-n2cc[n+](CCC(C)C)c2)cc1	inconclusive: -41.1%
CCn1c(=O)cc(SCC(=O)N2CCN(Cc3ccc4c(c3)OCO4)CC2)c2ccccc21	inconclusive: -43.5%
Cc1cc(SCC(=O)c2ccc(O)c(O)c2)n2nc(C)c(-c3ccccc3)c2n1	inactive: 0%
O=C1CCCCC1(c1ccccc1)c1ccccc1	inactive: 28.9%
CC(=O)Nc1ccc(Nc2cc(C)nc3c(-c4ccc(Cl)cc4)c(C)nn23)cc1	inconclusive: -30.9%
Cc1ccc(C(=O)N2CCN(c3ccc(NC(=O)c4cccs4)cc3)CC2)cc1	inconclusive: -49.2%
CCCCCCCCCn1c2c(c(=N)c3c1CCC3)CCCC2	active: -98.8%
O=C(N/N=C/c1ccsc1)c1c[nH]c2ccccc12	inconclusive: -35.1%
Cc1ccccc1NS(=O)(=O)c1ccc(C(=O)NCc2ccccc2CN2CCCC2)cc1	inconclusive: -35.4%
O=C(Nc1cccc(S(=O)(=O)NCc2ccco2)c1)c1cccc(Cl)c1	inactive: -12.2%
CCOc1ccc(C2NC(=O)NC(C)=C2C(=O)OCc2ccccc2)cc1 (centres undefined)	inconclusive: -38.6%
CC(C)Cc1cc(C(=O)Nc2cccnc2)no1	inconclusive: -32.5%
O=C1NC[C@H](Cc2ccccc2)N(CC2CCN(CCC34CC5CC(CC(C5)C3)C4)CC2)C1=O	active: -72.7%
CCOC(=O)CSc1nnc(-c2c[nH]c3ccccc23)o1	active: -92.8%
Cc1c(S(=O)(=O)N2CCCCC2)c(=O)n(C)c(=O)n1C	inactive: 9.28%

SMILES	activity change
Cc1cccc(Nc2nc(N3CCOCC3)nc(N3CCOCC3)n2)c1	active: -76.1%
O=S(=O)(Cc1ccccc1)N(O)c1ccccc1	active: -63%
O=C(Nc1ccc(N2CCCC2)c(Cl)c1)c1ccco1	inconclusive: -47.7%
Cc1cccc(C(=O)N2CCNC(=O)C2CC(=O)Nc2cccc(Cl)c2)c1 (centres undefined)	inconclusive: -35%
O=C(NN=C1CCCC1)c1[nH]c2ccc(Br)cc2c1-c1ccccc1	inconclusive: -38.2%
O=C(N/N=C/c1[nH]c2ccccc2c1Cl)c1cccc(Br)c1	active: -83.9%
COc1cccc(-c2csc(N3CCN(C(=S)Nc4ccccc4C)CC3)n2)c1	inconclusive: -32.4%
CC1CCN(c2oc(-c3ccccc3F)nc2C#N)CC1	inconclusive: -35.1%
O=C(CCNC(=O)c1ccccc1Cl)NCC1COc2ccccc2O1 (centres undefined)	inactive: 3.61%
O=S(=O)(NC1CCN(Cc2ccccc2)CC1)c1cccc(S(=O)(=O)N2CCOCC2)c1	inconclusive: -30.6%
CN(C)N1C(=O)c2c(Cl)c(Cl)c(Cl)c(Cl)c2C1=O	inconclusive: -47.8%
CCC(C)Oc1cc(-c2ccnc(Nc3cccc(Cl)c3)n2)ccn1 (centres undefined)	active: -85.8%
NNC(=S)NC1CCCCC1	inactive: 6.1%
COc1ccc(-c2nc(CSCC(=O)NC3CCCc4ccccc43)c(C)o2)cc1 (centres undefined)	inconclusive: -31.7%
O=C(Nc1ccc(Cl)cc1)Nc1ccccc1C(=O)NCc1ccco1	inconclusive: -39.3%
N#CCCN1CCN(CCC#N)C1=S	inactive: 11.1%
Cc1ccc(C2(C(F)(F)F)NC(=O)N3CCCN=C3S2)cc1 (centres undefined)	inconclusive: -41.7%
Cc1ccc(S(=O)(=O)N2CCN(C)CC2)c(C)c1	inactive: 1.93%
CC[C@@H](C)[C@@H]1CN([C@@H](C)CN2CCC[C@H]2CN2C(N)=NC[C@H]2CC(C)C)C(=N)N1CCc1ccc(Cl)c(Cl)c1	inconclusive: -49.1%
CCc1c(C)sc(NC(=O)c2cccs2)c1C(=O)OC(C)C	inactive: 0%
O=C1C(=O)N(CCO)C(c2ccccc2[N+](=O)[O-])/C1=C(\O)c1ccccc1 (centres undefined)	inactive: 8.75%
O=C(Nc1nccs1)c1ccc(S(=O)(=O)NCc2cccs2)cc1	active: -75.8%
Cc1ccc(Cl)cc1N1CCN(C(=O)Cc2cn(C)c3ccccc23)CC1	inactive: -29.7%

SMILES	activity change
CC(C)(C)OC(=O)NC1CCN(S(=O)(=O)c2ccc3c(c2)OCCO3)CC1	inactive: 23.6%
CN1CCCC1CCNS(=O)(=O)c1ccc(Br)cc1 (centres undefined)	inactive: 7.06%
COCc1cc(C)nc2sc(C(=O)N3CCCC3)c(N)c12	inconclusive: -42.1%
COc1cc2c(cc1NC(=O)COC(=O)Cn1cnc3ccccc31)oc1ccccc12	inconclusive: -47.1%
CC(=O)Nc1sc2c(c1C(c1ccccc1Cl)N1CCN(CCO)CC1)CCCC2 (centres undefined)	inactive: -2.28%
CCCn1c(N2CCN(C(=O)NCc3ccccc3)CC2)nc2ccccc21	inconclusive: -37.6%
C=CCN1C=CC(=C/C=C(/C#N)C(=O)OCC)C=C1	inactive: -28.7%
Cc1ccc[n+](CC2OCc3ccccc3CO2)c1	inactive: 50.4%
CCn1c(C)nc2cc(C(=O)NNC(=O)Nc3cccc(Cl)c3)ccc21	inconclusive: -31.7%
Cn1nnc2cc(NC(=O)Nc3ccccc3F)ccc21	inconclusive: -46.9%
O=C(NCCCn1ccnc1)c1cc(-c2ccc(Br)cc2)on1	inconclusive: -37.4%
CCN(CC)CCn1c2c(c(SCC(=O)Nc3ccc(C)c(F)c3)nc1=O)CCC2	inconclusive: -30.1%
COC(=O)c1ccc(NC(=O)C(=O)c2cn(CC(=O)N3CCOCC3)c3ccccc23)cc1	inactive: 10.9%
O=C(NNC1=Nc2ccccc2SC1)c1ccc(F)cc1	inactive: 25.7%
Cc1cc(C)nc(Sc2nc(Nc3ccccc3)nc(Sc3nc(C)cc(C)n3)n2)n1	active: -53.7%
CCOP(=O)(OCC)C(NC(=O)Nc1cccc(Cl)c1)C(N)=O (centres undefined)	inactive: -11.6%
COc1cccc(CNC(=O)c2cccnc2Sc2ccccc2)c1	inconclusive: -31.7%
CCc1ccccc1NC(=O)c1cnn(-c2ccccc2)c1C	active: -92.6%
C=C(C)C(O)Cc1c(OC)ccc(C(=O)/C=C/c2ccc(O)cc2)c1O (centres undefined)	inconclusive: -44.1%
COc1cccc(-c2nnc(-c3ccc(C(F)(F)F)cc3)o2)c1OC	inconclusive: -34.9%
